The other results are listed elsewhere or left out. A value given as a limit tells only on which side of the number the result lay.

First the molecules themselves.
B1: PhoQ; a variant is named by its letters at X, in order, P23837 (parent)
chain: MKKLLRLFFPLSLRVRFLLATAAVVLVLSLAYGMVALIGYSVSFDKTTFRLLRGESNLFYTLAKWENNKLHVELPENIDKQSPTMTLIYDENGQLLWAQRDVPWLMKMIQPDWLKSNGFHEIEADVNDTSLLLSGDHSIQQQLQEVREDDDDAEMTHSVAVNVYPATSRMPKLTIVVVDTIPVELKSSYMVWSWFIYVLSANLLLVIPLLWVAAWWSLRPIEALAKEVRELEEHNRELLNPATTRELTSLVRNLNRLLKSERERYDKYRTTLTDLTHSLKTPLXXLQXXLRSLRSEKMSVSDAEPVMLEQISRISQQIGYYLHRASMRGGTLLSRELHPVAPLLDNLTSALNKVYQRKGVNISLDISPEISFVGEQNDFVEVMGNVLDNACKYCLEFVEISARQTDEHLYIVVEDDGPGIPLSKREVIFDRGQRVDTLRPGQGVGLAVAREITEQYEGKIVAGESMLGGARMEVIFGRQHSAPKDE

In the test the parent is B1. Put plainly: enrichment ratio after two sorts for PhoP signalling (ratio (wild type AVST 3.29)); higher = more functional. Conditions: with PhoP (E. coli).
VMVR: the enrichment ratio was at most 0.25.
As to KNYP, the enrichment ratio was at most 0.25.
The figure for GKEV is at most 0.25; for GVMC it is at most 0.25; for RKAH it is at most 0.25.
The figure for WHSG is at most 0.25; for SCPV it is 6.54; for HFIH it is at most 0.25.
Turning to SMIN, the enrichment ratio was at most 0.25.
The value for TRAC was at most 0.25; that for QGLH was at most 0.25.
For the variant YSAQ, the enrichment ratio was at most 0.25.
MSFP: the enrichment ratio is at most 0.25.
Take SWYY: the enrichment ratio is at most 0.25.
As for HWVM, the enrichment ratio is at most 0.25.
As for KMTL, the enrichment ratio was at most 0.25.
On to GHMS, for which the enrichment ratio is at most 0.25.
Consider KYTH, for which the enrichment ratio was at most 0.25.
With FDAG, the enrichment ratio is at most 0.25.
For VKIS, the enrichment ratio is at most 0.25.
MYLL: the enrichment ratio was at most 0.25.
The value for IWPK was at most 0.25.
Turning to FQGS, the enrichment ratio is at most 0.25.
For the variant LKIE, the enrichment ratio came out at 1.65.
Regarding RNFQ, the enrichment ratio is at most 0.25.
The value for LFPL was at most 0.25; that for MYHH was at most 0.25; that for GNPD was at most 0.25.
The figure for MTEM is at most 0.25; for TYLY it is at most 0.25; for CFFP it is at most 0.25.
Take STTK: the enrichment ratio is at most 0.25.
Take QGLP: the enrichment ratio was at most 0.25.
For the variant SHEN, the enrichment ratio is at most 0.25.
The value for LQVL was at most 0.25; that for QLCY was at most 0.25.
For the variant LVTS, the enrichment ratio was at most 0.25.
The value for HHNQ was at most 0.25.
The figure for VFQE is at most 0.25; for KVWL it is at most 0.25; for LYHW it is at most 0.25.
As to AFNS, the enrichment ratio is at most 0.25.
The value for TNIQ was at most 0.25; that for VYSN was at most 0.25.
The value for RIVG was at most 0.25.
Turning to KQLD, the enrichment ratio was at most 0.25.
The value for MEYA was 4.82.
As for YRSM, the enrichment ratio was at most 0.25.
For FCHK, the enrichment ratio was at most 0.25.
The value for PNCW was at most 0.25; that for FVWH was at most 0.25; that for NCYS was at most 0.25.
As to PKND, the enrichment ratio was at most 0.25.
In the case of YHVG, the enrichment ratio is at most 0.25.
As for RPRL, the enrichment ratio was at most 0.25.
For HWSH, the enrichment ratio was at most 0.25.
For LVQW, the enrichment ratio is at most 0.25.
Consider WQSR, for which the enrichment ratio is at most 0.25.
For SNGV, the enrichment ratio came to 5.15.
As to AEFA, the enrichment ratio came out at 0.58.
For EVDD, the enrichment ratio is at most 0.25.
The figure for RWAM is at most 0.25; for SYFD it is at most 0.25; for KNTM it is at most 0.25.
The value for DIHP was at most 0.25; that for EIDP was at most 0.25.
As for HEDD, the enrichment ratio was at most 0.25.
In the case of SFWP, the enrichment ratio was at most 0.25.
Consider LCVP, for which the enrichment ratio was at most 0.25.
QKVE: the enrichment ratio is at most 0.25.
Regarding TGYT, the enrichment ratio came to 10.1.
Take PDQN: the enrichment ratio is at most 0.25.
As to DGPI, the enrichment ratio is at most 0.25.
Turning to LICT, the enrichment ratio was at most 0.25.
FYNQ: the enrichment ratio was at most 0.25.
Consider GARW, for which the enrichment ratio is at most 0.25.
The figure for AVGQ is at most 0.25; for KMIM it is at most 0.25; for PGWC it is at most 0.25.
For DYHK, the enrichment ratio was at most 0.25.
On to FVGG, for which the enrichment ratio was at most 0.25.
The figure for HCRI is at most 0.25; for NNAR it is at most 0.25.
Consider VSEC, for which the enrichment ratio is at most 0.25.
In the case of YTIC, the enrichment ratio is at most 0.25.
Consider FIGV, for which the enrichment ratio was at most 0.25.
Consider PRAL, for which the enrichment ratio was at most 0.25.
LAMM: the enrichment ratio came to 14.3.
QLDV: the enrichment ratio is at most 0.25.
As to RFDG, the enrichment ratio is at most 0.25.
On to SAYK, for which the enrichment ratio is at most 0.25.
The value for SAAL was 12.8; that for WETQ was at most 0.25; that for FERQ was at most 0.25.
GFLG: the enrichment ratio came to 6.69.
The value for AAMW was 2.71; that for QLIH was at most 0.25; that for FYFV was at most 0.25.
For the variant MHFV, the enrichment ratio was at most 0.25.
For TSPW, the enrichment ratio is at most 0.25.
As for YFYC, the enrichment ratio is at most 0.25.
For the variant MKNG, the enrichment ratio is at most 0.25.
For HGFY, the enrichment ratio is at most 0.25.
For KVSP, the enrichment ratio was at most 0.25.
The figure for KHFR is at most 0.25; for PWIN it is at most 0.25.
GSWI: the enrichment ratio was at most 0.25.
The value for RFAI was at most 0.25.
In the case of MECL, the enrichment ratio turned out to be 10.6.
The value for YIDI was at most 0.25; that for ADPA was at most 0.25; that for PYYI was at most 0.25.
As for RMRC, the enrichment ratio was at most 0.25.
The value for QCLS was at most 0.25; that for SMMY was 2.28.
As for MLGD, the enrichment ratio is at most 0.25.
As to PGFK, the enrichment ratio is at most 0.25.
As to VNAS, the enrichment ratio worked out at 0.424.
In the case of PKFW, the enrichment ratio was at most 0.25.
MEGA: the enrichment ratio was at most 0.25.
As to RFDE, the enrichment ratio is at most 0.25.
Regarding SVWW, the enrichment ratio was at most 0.25.
For the variant HDLP, the enrichment ratio is at most 0.25.
As for SMMI, the enrichment ratio amounted to 5.18.
Turning to FPNR, the enrichment ratio was at most 0.25.
Regarding WEEM, the enrichment ratio was at most 0.25.
In the case of QFRC, the enrichment ratio is at most 0.25.
Regarding FTDD, the enrichment ratio is at most 0.25.
DLIT: the enrichment ratio was at most 0.25.
In the case of IMNW, the enrichment ratio is at most 0.25.
The figure for EFWC is at most 0.25; for DYEQ it is at most 0.25; for DEHV it is at most 0.25.
PLIG: the enrichment ratio was at most 0.25.
Regarding KCTT, the enrichment ratio is at most 0.25.
Take PDGW: the enrichment ratio was at most 0.25.
In the case of EPCE, the enrichment ratio was at most 0.25.
Take WQAQ: the enrichment ratio is at most 0.25.
As for NFMW, the enrichment ratio is at most 0.25.
The value for KCWP was at most 0.25; that for RMNE was at most 0.25; that for GPAV was at most 0.25.
The value for RIHR was at most 0.25; that for FQTC was at most 0.25.
As to IYHW, the enrichment ratio is at most 0.25.
As to NEIV, the enrichment ratio is at most 0.25.
Turning to FWGK, the enrichment ratio was at most 0.25.
In the case of SNEP, the enrichment ratio is at most 0.25.
For NEAQ, the enrichment ratio was at most 0.25.
For the variant IKDW, the enrichment ratio was at most 0.25.
Take DKDS: the enrichment ratio is at most 0.25.
Consider TIYI, for which the enrichment ratio is 4.29.
For HAFI, the enrichment ratio was at most 0.25.

The values above are taken from a collection of fitness landscapes (doi:10.1126/science.1257360).
